# Laboratory results reported in publication PMC4336329 (PLoS ONE, 2015).
# In all, about 310,000 compounds went through this assay and about 14,000 (4.5%) showed an effect of 50% or more. Effects have a minus sign here. The list shows a part of the results.
# Biological target: human ether-à-go-go-related gene (hERG) potassium channel (human, UniProt Q12809)
# Experiment: primary screen, population patch clamp on CHO cells stably expressing hERG
# 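Note: peak tail current of the secondary pulse compared with the same well before compound.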
# Chain of human ether-à-go-go-related gene (hERG) potassium channel (Q12809 whole entry, looked up): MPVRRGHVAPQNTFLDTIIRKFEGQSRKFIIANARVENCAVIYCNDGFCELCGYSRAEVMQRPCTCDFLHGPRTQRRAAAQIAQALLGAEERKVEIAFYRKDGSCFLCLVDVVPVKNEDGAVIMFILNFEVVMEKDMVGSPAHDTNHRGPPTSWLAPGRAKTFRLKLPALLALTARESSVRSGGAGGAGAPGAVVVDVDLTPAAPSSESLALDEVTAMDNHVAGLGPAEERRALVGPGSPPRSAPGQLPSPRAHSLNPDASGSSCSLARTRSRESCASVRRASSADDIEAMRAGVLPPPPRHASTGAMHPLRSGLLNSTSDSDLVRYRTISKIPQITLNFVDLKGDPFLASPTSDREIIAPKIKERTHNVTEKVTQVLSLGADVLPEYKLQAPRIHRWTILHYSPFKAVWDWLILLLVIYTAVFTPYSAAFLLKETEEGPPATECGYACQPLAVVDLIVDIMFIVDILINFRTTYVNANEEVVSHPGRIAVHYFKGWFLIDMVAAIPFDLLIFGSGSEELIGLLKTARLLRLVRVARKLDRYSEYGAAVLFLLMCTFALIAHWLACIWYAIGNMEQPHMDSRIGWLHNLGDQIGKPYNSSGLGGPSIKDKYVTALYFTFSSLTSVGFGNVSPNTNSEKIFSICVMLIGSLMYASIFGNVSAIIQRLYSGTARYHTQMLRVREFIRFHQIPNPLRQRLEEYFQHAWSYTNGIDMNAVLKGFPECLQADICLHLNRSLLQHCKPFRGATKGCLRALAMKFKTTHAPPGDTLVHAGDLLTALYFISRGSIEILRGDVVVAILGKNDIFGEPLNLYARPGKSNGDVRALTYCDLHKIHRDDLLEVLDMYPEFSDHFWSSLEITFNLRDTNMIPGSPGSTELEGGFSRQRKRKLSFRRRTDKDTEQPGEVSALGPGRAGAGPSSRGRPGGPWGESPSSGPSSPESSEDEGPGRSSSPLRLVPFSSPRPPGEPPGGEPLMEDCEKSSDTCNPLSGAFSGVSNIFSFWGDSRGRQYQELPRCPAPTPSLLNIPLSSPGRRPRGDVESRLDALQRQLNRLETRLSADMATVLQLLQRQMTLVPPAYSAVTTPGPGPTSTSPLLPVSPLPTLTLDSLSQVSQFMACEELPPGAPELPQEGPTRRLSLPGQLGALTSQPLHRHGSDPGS
row,SMILES,"hERG current change (%, negative = inhibition) at 10uM [%]"
1,Cc1[nH]c2ccccc2c1C(=O)CN1C(=O)NC2(CCCCCC2)C1=O,12.5
2,COc1ccc(CN2CCCC(C(=O)c3ccc(Cl)cc3)C2)c(OC)c1 (stereo not drawn),-75.2
3,CCc1c(C)nc(SCC(=O)Nc2c(C)n(C)n(-c3ccccc3)c2=O)[nH]c1=O,-5.46
4,NC(=O)c1nsc(C(=O)N(c2ccccc2)C(C(=O)NC2CCCC2)c2ccncc2)c1N (stereo not drawn),22.1
5,CC(=O)N(/N=C1\Sc2ccccc2C1=O)c1ccc(C)cc1C,18
6,Cc1cc(C(=O)COC(=O)c2cc(Cl)ccc2N)c(C)n1Cc1ccco1,19.9
7,O=C(COC(=O)c1nn(-c2ccccc2C(F)(F)F)cc1O)c1ccc(OC(F)F)cc1,9.41
8,O=C(NCc1cccnc1)C(=O)Nc1nc(-c2ccccc2)cs1,-3.98
9,Cl.Nc1c2c(nc3ccccc13)CCCC2,-39.7
10,O=C(NCCC(=O)N1CCCC(C(F)(F)F)C1)c1ccccc1Cl (stereo not drawn),6.81
11,O=C(CCSCc1ccccc1F)NCc1ccc(F)cc1,-4.24
12,CC1CCN(C(=S)c2ccc(N(C)C)cc2)CC1,-5.69
13,COc1ccccc1/C=C/C(=O)Nc1ccc2c(c1)CCC2,6.71
14,Cc1cc(Cl)cc(Cl)c1OCCCCN(C)C.O=C(O)C(=O)O,-43.7
15,COc1ccc(N(CC(=O)NCCSc2ccc(C)cc2)S(=O)(=O)c2ccccc2)c(OC)c1,-17.4
16,C/C(=N/NC(=O)c1ccn(C)n1)c1ccncc1,13.2
17,CCN1CCN(c2ccc(S(=O)(=O)N3CCCCC3)cc2NC(=O)COc2cc(C)ccc2Cl)CC1,-14.1
18,O=C(O)CCCCCn1c(SCC(=O)c2ccc(O)c(O)c2)nc2ccsc2c1=O,32.2
19,COC(=O)C1=C(c2ccc(OC)c(OC)c2)C[C@@H]2CC[C@H]1N2C(=O)NCCOc1ccccc1,9.93
20,CS(=O)(=O)c1nc(S(=O)(=O)c2ccc(Cl)cc2)c(NCCN2CCOCC2)s1,-31.6
21,Cc1ccc(NC(=O)c2cccc(S(=O)(=O)N(C)C3CCCCC3)c2)nc1,-34.7
22,CCN(CC)S(=O)(=O)c1ccc(OCC(=O)NC(=O)Cc2ccccc2)c([N+](=O)[O-])c1,-15.9

row,SMILES,"hERG current change (%, negative = inhibition) at 10uM [%]"
1,CN(Cc1nccs1)C(=O)c1ccc(OC2CCN(CCc3ccccc3)CC2)cc1,-58.9
2,CCOc1ccc(NS(=O)(=O)c2ccc(NC(=S)NC(=O)CC(C)C)cc2)cc1,8.92
3,O=C(O)Cc1ccc(C(=O)c2ccc(Cl)cc2)s1,18.6
4,Cc1nn2c3cc(N4CCOCC4)ccc3nc2c2ccccc12,22.2
5,C[C@@]12C(=O)Nc3cc(Cl)ccc3C(=O)N1[C@H]1c3ccccc3OC[C@@H]1[C@@H]2c1ccccc1,26.1
6,CCN(C(C)=O)c1nc(CSc2nnc(NC(C)C)s2)cs1,-25.4
7,CC(=O)C1C(c2cccc(F)c2)c2c(n[nH]c2C)CC1(C)O (stereo not drawn),15.7
8,COc1cccc2cc(-c3ccnc(N)n3)oc12,14.7
9,CC(NC(=O)CN1CCN(c2cccc(Cl)c2)CC1)c1ccccc1 (stereo not drawn),4.34
10,CCC1CCC(N2CCN(c3ccc(F)cc3)CC2)CC1 (stereo not drawn),-52.1
11,CCOC(=O)c1csc(NC(=O)c2ccc(S(=O)(=O)N3CCCC3)cc2)n1,11.3
12,CCOc1ccc(Br)cc1S(=O)(=O)Nc1ccc(C(=O)OCC(=O)Nc2ccc(C#N)cc2)cc1,-3.68
13,CN(C)CC(O)COc1ccc(-c2ccc(C#N)cc2)cc1 (stereo not drawn),-57.5
14,O=C(O)CC1SC(=Nc2ccc(O)cc2)NC1=O (stereo not drawn),31.6
15,COc1ccc(OCCCC(=O)Nc2cccc([N+](=O)[O-])c2C)cc1,6.78
16,Cc1ccccc1NC(=O)CSc1nnc(C)c(=O)[nH]1,8.62
17,Fc1ccc(CNc2ccccn2)cc1,8.01
18,CCn1c(CNC(=O)C23CC4CC(CC(C4)C2)C3)nnc1SCC(=O)Nc1nnc(C)s1,10.4
19,CCc1ccc(NC(=O)CSc2nc(N)c(NC(=O)c3ccc(F)c(F)c3)c(=O)[nH]2)cc1,19
20,O=C(O)c1cc(S(=O)(=O)N2CCOCC2)ccc1N1CCOCC1,8.16
21,CCN(CC)C(=O)Cn1c(C)c(/C=C/c2cc[n+](C)cc2)c2ccccc21.[I-],14.6
22,COc1ccc(OC)c(N2C(=NC(=O)C3CCCCC3)SC3CS(=O)(=O)CC32)c1 (stereo not drawn),-37.7

row,SMILES,"hERG current change (%, negative = inhibition) at 10uM [%]"
1,c1cncc(CNc2c3c(nc4nnnn24)CCCC3)c1,2.51
2,COc1cc(/C=N/NC(=O)c2sc(N)c(C#N)c2C)ccc1O,-0.837
3,Cc1ccc2cccc(OCCCOc3ccccc3F)c2n1.O=C(O)C(=O)O,-8.98
4,CCCc1ncc(C(O)c2cccc(OC)c2)n1C (stereo not drawn),-2.18
5,O=C(NC(Nc1nc2ccc([N+](=O)[O-])cc2s1)(C(F)(F)F)C(F)(F)F)c1cccnc1,-14.3
6,COc1ccccc1S(=O)(=O)Cc1ccc(C(=O)NC(C)c2ccc3c(c2)OCCO3)o1 (stereo not drawn),-3.94
7,N#CC1=C(N)NC(SCC(=O)c2ccccc2)=C(C#N)C12CCCC2,-35.3
8,Cc1cc(/C=C2\NC(=O)NC2=O)c(C)n1-c1cccnc1,5.67
9,COc1ccc(/C=C/C(=O)Nc2ccncc2)cc1OC,11.9
10,CCOc1cc(-c2c(C)c(CC)nc(N)c2C#N)ccc1O,-12.3
11,CCN(CC)C(=O)c1ccc(NC(=O)C2=C(C)OCCS2)cc1,25.4
12,CCN(C(=O)COC(=O)c1ccc2c(=O)n3c(nc2c1)CCC3)C1CCS(=O)(=O)C1 (stereo not drawn),19
13,CCCOC1CCCN(C(=O)c2ccc(OC3CCN(C(=O)COC)CC3)cc2)C1 (stereo not drawn),25.3
14,CO/N=C/C(c1ccc(Cl)nc1)S(=O)(=O)c1ccccc1 (stereo not drawn),8.58
15,CS(=O)(=O)NN1C(=O)c2ccccc2NC1c1ccccc1O (stereo not drawn),20.2
16,O=C(COc1ccccc1F)Nc1nnc(-c2ccncc2)s1,-3.02
17,CSc1n[nH]c(-c2sccc2OCc2ccc(C)cc2)n1,-29.3
18,CNC(=S)N/N=C/c1c(Cl)cccc1Cl,15
19,Cc1ccc(OC(C)C(=O)N(C)c2ccccc2)c([N+](=O)[O-])n1 (stereo not drawn),2.38
20,CS(=O)(=O)N1CCN(c2ccccc2NC(=O)c2ccc3c(c2)OCCO3)CC1,-10.6
21,N#CC1=C(N2CCOCC2)/C(=C\c2ccccc2)CC1,3.39
22,O=C(NCC1CCCO1)c1ccc2c(c1)N(Cc1ccc(F)cc1Cl)C(=O)CS2 (stereo not drawn),3.23

row,SMILES,"hERG current change (%, negative = inhibition) at 10uM [%]"
1,CC(C)NC(=O)c1cnc(Sc2ncc(C(F)(F)F)cc2Cl)n1C,5.03
2,CCOc1ccc(OCC)c(NS(=O)(=O)c2ccc3c(c2)CCN3C(=O)C2CCC2)c1,4.11
3,Cc1cc(=O)oc(C)c1C(=O)Nc1ccccc1F,5.24
4,COC(=O)C1=C(C(=O)OC)[C@@H]2N(C)c3ccc(OC)cc3[C@@]23C[C@@H](C(=O)OC)N(S(=O)(=O)c2ccc(OC)cc2)C3=N1,-12.4
5,CC(=O)Nc1nc(S(=O)(=O)c2ccc(C)cc2)c(Cl)s1,-8.1
6,Cc1nnsc1C(=O)Nc1cccc(Cl)c1Cl,-17.6
7,O=C(c1cccc(N2C(=O)C3CC=CCC3C2=O)c1)N1CCCCCC1 (stereo not drawn),-3.26
8,COc1ccc(NC(=O)CN2CCN(CC(=O)Nc3ccc(OC)cc3)CC2)cc1,-76.6
9,COc1ccc(OC)c(N(CC(=O)NCCc2ccc(OC)c(OC)c2)S(=O)(=O)c2ccccc2)c1,-18.3
10,COC(=O)CSc1nc(N2CCOCC2)c2c(c1C#N)CC(C)(C)N(C)C2,2.3
11,Cc1onc(-c2ccccc2Cl)c1C(=O)N1CCCCC1C(=O)O (stereo not drawn),16.1
12,COc1ccc(-c2[nH]ncc2CNC(C)Cc2cccc(C)n2)cc1F (stereo not drawn),-24
13,Cc1ccc(-n2cc[nH]c2=S)cc1C,22.7
14,O=C(N/C(=C/C=C\c1ccccc1)C(=O)N1CCOCC1)c1ccc(Br)cc1,-64.1
15,O=C(O)c1cc(-c2cccc([N+](=O)[O-])c2)nc2ccccc12,3.98
16,COc1cc(NS(C)(=O)=O)ccc1Nc1c2ccccc2nc2ccccc12.Cl,-67.7
17,CC(C(=O)Nc1ccc(C(=O)O)cc1)N1C(=O)c2ccccc2C1=O (stereo not drawn),6.11
18,Clc1ccc(CSc2ncnc3nc[nH]c23)cc1,4.46
19,CC(=O)NC(CC(=O)O)c1ccccc1 (stereo not drawn),10.6
20,CN(CCc1ccccn1)C(=O)Nc1ccc(Cl)cc1,6.31
21,CC(=O)c1c(C)n(Cc2ccccc2Cl)c2ccc(O)cc12,9.73
